For this assay, the target named is T1, human NRP1 (residues 22-644) (human, UniProt O14786 22-644).
T1 sequence (looked up): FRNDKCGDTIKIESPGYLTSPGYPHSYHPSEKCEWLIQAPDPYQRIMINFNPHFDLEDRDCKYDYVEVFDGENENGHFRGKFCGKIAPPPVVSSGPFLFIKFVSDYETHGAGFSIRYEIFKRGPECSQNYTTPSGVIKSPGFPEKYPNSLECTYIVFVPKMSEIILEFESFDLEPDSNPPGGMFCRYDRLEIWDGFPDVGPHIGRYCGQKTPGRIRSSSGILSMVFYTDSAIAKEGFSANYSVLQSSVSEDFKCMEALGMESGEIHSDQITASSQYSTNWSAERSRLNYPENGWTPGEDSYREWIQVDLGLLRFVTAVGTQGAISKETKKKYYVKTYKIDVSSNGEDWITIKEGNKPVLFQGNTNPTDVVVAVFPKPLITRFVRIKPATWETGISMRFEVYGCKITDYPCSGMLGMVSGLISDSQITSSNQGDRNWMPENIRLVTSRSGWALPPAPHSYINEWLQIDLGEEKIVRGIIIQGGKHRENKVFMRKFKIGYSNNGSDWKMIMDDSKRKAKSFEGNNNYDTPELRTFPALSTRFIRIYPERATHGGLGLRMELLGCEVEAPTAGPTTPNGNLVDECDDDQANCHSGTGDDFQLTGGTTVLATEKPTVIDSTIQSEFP
Nature of the assay: MST.

B1: fluorescent human NGF (ligand)
chain: not shown
modifications: fluorescent label (dye and site not stated)
Turning to B1, the equilibrium dissociation constant (Kd) – broadly, the constant that tells how readily two partners part at equilibrium – was 35.5 nM.

The values are drawn from paper doi:10.1101/2023.12.06.570398 (bioRxiv, 2023).
